Assay results from PubChem BioAssay AID624170 (National Center for Advancing Translational Sciences (NCATS), 2012).
Hit rate of the full screen: of about 410,000 compounds, about 850 (0.21%) were called active. Inconclusive results, whose numbers are uncertain, are shown with a selection of clear calls. The call rests on the fitted dose curve; in most records, active means well fitted inhibition curve with a large enough effect; inconclusive means small, poorly fitted or top-dose-only effect, or another doubt; inactive means no such curve, though single readings can be large or run the other way. Potencies of inconclusive entries are left out as doubtful fits.

Each compound was assayed against Glutaminase kidney isoform, mitochondrial (Homo sapiens) (UniProt O94925) (assay: qHTS for Inhibitors of Glutaminase (GLS)). Conditions: GLS enzymatic activity, qHTS titration; series mostly up to 45.5 µM.
UniProt O94925, sequence (O94925 whole entry, looked up, canonical isoform): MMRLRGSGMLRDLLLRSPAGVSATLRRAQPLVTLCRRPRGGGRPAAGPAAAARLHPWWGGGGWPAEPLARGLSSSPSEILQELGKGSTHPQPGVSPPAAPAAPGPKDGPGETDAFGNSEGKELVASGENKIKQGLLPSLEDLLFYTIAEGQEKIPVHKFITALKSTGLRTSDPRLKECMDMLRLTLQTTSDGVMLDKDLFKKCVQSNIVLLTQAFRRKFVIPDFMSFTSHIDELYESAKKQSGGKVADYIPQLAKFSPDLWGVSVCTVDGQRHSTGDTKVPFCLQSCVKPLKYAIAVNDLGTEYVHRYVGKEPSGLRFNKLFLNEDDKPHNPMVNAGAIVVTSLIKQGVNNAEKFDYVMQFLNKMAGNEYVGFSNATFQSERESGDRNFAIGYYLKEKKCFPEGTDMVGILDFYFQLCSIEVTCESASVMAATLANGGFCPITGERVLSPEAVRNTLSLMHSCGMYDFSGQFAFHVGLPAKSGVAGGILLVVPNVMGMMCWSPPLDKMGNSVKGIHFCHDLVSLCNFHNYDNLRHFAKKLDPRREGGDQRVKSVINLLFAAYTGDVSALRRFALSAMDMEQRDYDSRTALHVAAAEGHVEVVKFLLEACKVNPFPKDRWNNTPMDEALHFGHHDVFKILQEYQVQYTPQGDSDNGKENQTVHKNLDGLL
Outline: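 Human kidney-isoform GLS in 45 mM KH2PO4 pH 8.2, 0.02% Tween-20, with compound, started with 1mM L-Glutamine (added stock). Glutamate oxidase/HRP/Amplex red coupled fluorescence read at start and after 30 min at RT.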
Potency means the concentration at half of the fitted maximal effect; tags describe the fitted curve by direction and shape.

Row | Structure (SMILES) | Potency
1 | CC(O)(CS(=O)(=O)c1ccccc1)C(=O)Nc1ccc(C(F)(F)F)cc1 (stereo unspecified) | inactive
2 | O=C1C(=O)c2ccccc2-c2ccccc21 | inactive
3 | Cc1ccc[n+](CC(O)Cn2c3ccccc3c3ccccc32)c1 (stereo unspecified) | inactive
4 | COC(=O)C1=C(c2ccc(F)cc2OCc2ccccc2)C[C@@H]2CC[C@H]1N2C(=O)NCc1ccccc1Cl | inactive
5 | C#CCOCCOCCOCCNc1nc(N2CCN(C(=O)CCCCCCCCCCNC(=O)[C@H]([C@@H](C)CC)n3cc(CCCCN=C(N)N)nn3)CC2)nc(N2CCN(C(=O)CCCCCCCCCCNC(=O)[C@H](CO)n3cc(CCCCCN)nn3)CC2)n1 | inconclusive [inhibitor, single point]
6 | Oc1ccc(CC2(N3CCCC3)CCCCC2)cc1 | inconclusive [inhibitor, single point]
7 | O=P(O)(O)COc1ccccc1O | inconclusive [inhibitor, single point]
8 | O=c1[nH]c(O)c(N=Nc2ccc(Cl)c(S(=O)(=O)Nc3ccccc3Cl)c2)c(=O)[nH]1 | inconclusive [inhibitor, single point]
9 | CC/C(=N\Nc1ccccc1)c1c(O)n(-c2ccccc2)c(=O)[nH]c1=O | inconclusive [inhibitor, partial curve]
10 | COc1cc(CNCCc2ccc3c(c2)OCO3)ccc1O | inconclusive [inhibitor, partial curve]
11 | COc1cccc(C(=O)C2CCCN(Cc3ccc(F)cc3)C2)c1 (stereo unspecified) | inconclusive [inhibitor, single point]
12 | Cc1cc(/C=C2\C(=O)NC(=O)N(c3ccc(Br)cc3)C2=O)c(C)n1-c1cc(C(=O)O)cc(C(=O)O)c1 | active: 10 µM
13 | O=C1NC(=O)N(c2ccccc2)C(=O)/C1=C/c1ccc([N+](=O)[O-])s1 | inconclusive [inhibitor, single point]
14 | CN(C)C1C(=O)C(C(N)=O)C(=O)C2(O)C(=O)C3C(=O)c4c(O)cccc4C(C)(O)C3C(O)C12 (stereo unspecified) | active: 6.31 µM
15 | O=c1[nH]c(CN2CC=C(c3ccccc3)CC2)nc2scc(-c3cccs3)c12 | inconclusive [inhibitor, single point]
16 | CCCCCCCCCCCCn1ccc(=N)cc1 | inconclusive [inhibitor, single point]
17 | Fc1ccccc1CNC1CN2CCC1CC2 (stereo unspecified) | inconclusive [inhibitor, single point]
18 | CN1CC[C@@]2(C)c3cc(O)ccc3N(C)[C@@H]12 | inconclusive [inhibitor, single point]
19 | O=c1c2ccccc2c(C=Nc2ccc(O)cc2)c(O)n1Cc1ccccc1 | inconclusive [inhibitor, single point]
20 | Cc1cc(NC(=O)CSc2nc3c(c(=O)n2-c2ccc(Cl)cc2)SCC3)no1 | inconclusive [inhibitor, single point]
21 | O=C(Cc1cc(=O)oc2cc(O)ccc12)NN=Cc1ccc(N(CCCl)CCCl)cc1 | inconclusive [inhibitor, single point]
22 | O=C1NC(=S)NC(=O)C1=Cc1ccc(OCC(=O)N2CCCC2)cc1 | inconclusive [inhibitor, single point]

Row | Structure (SMILES) | Potency
23 | O=C1NC(=S)N(c2ccc(Br)cc2)C(=O)/C1=C/N1CCN(C(=O)c2ccco2)CC1 | inconclusive [inhibitor, single point]
24 | CC(C)CN(C(=O)CN1CC=C(c2ccccc2)CC1)c1c(N)n(CC(C)C)c(=O)[nH]c1=O | inconclusive [inhibitor, partial curve]
25 | Cc1cc(C)cc(NC(=S)NC2CC3CCCC(C2)N3Cc2cccs2)c1 (stereo unspecified) | inconclusive [inhibitor, partial curve]
26 | Cc1c(C(=O)Nc2ccccc2)c2cc(O)ccc2n1Cc1ccccc1 | inconclusive [inhibitor, single point]
27 | CC(=O)Nc1ccccc1C(=O)OCC(=O)c1ccccc1Cl | inactive
28 | O=c1c2ccccc2sn1-c1ccc(Cl)cc1 | inconclusive [inhibitor, single point]
29 | CCn1ccnc1CN1CCCC(C(=O)c2cc(F)ccc2OC)C1 (stereo unspecified) | inactive
30 | CCNC(=O)[C@H]1O[C@@H](n2cnc3c(N)ncnc32)[C@H](O)[C@@H]1O | inactive
31 | O=C(O)c1cccc2c1NC(C(=O)O)C1CC(Sc3ccccc3[N+](=O)[O-])C(Cl)C21 (stereo unspecified) | active: 7.08 µM
32 | O=c1c2ccccc2nc(/C=C/c2ccc(O)c(O)c2)n1-c1ccccc1 | inconclusive [inhibitor, single point]
33 | COC(=O)C1=C(c2ccc(-c3ccccc3)c(F)c2)C[C@@H]2CC[C@H]1N2C(=O)N1CCOCC1 | inactive
34 | O=C1NC(=O)N(c2ccccc2)C(=O)/C1=C\c1ccc([N+](=O)[O-])s1 | inconclusive [inhibitor, partial curve, poor fit]
35 | CCOC(=O)/C(=N\Nc1ccccc1)N1CC1 | inconclusive [inhibitor, single point]
36 | CC/C(=C\C=C\[C@@H]1C=C[C@@H]2CCC[C@H]2[C@@H]1C(=O)c1ccc[nH]1)[C@@H]1O[C@@H]([C@@H](C)C(=O)O)CC[C@@H]1C | inconclusive [inhibitor, single point]
37 | Cc1cccc(N2C(=O)NC(=O)/C(=C\c3cnn(-c4ccccc4)c3)C2=O)c1 | inconclusive [inhibitor, single point]
38 | Cc1ccc(Sc2ccc(C=C3C(=O)N(C)C(=O)N(C)C3=O)o2)cc1 | inconclusive [inhibitor, partial curve, poor fit]
39 | COc1ccc(OCC(=O)N2CCN(CC3CC4C=CC3C4)CC2)cc1 (stereo unspecified) | inactive
40 | C=CCN1C(=O)NC(=O)C(CCc2ccncc2)(CCc2ccncc2)C1=O | inconclusive [inhibitor, single point]
41 | Cc1c(N=Nc2c(O)[nH]c(=O)[nH]c2=O)c(=O)n(-c2ccccc2)n1C | inactive
42 | CN1C(=O)/C(=C\c2ccc(Br)s2)C(=O)NC1=S | inconclusive [inhibitor, single point]
43 | CCOC(=O)c1c(NC(NC(=O)CF)C(Cl)(Cl)Cl)sc2c1CCCC2 (stereo unspecified) | inconclusive [inhibitor, single point]
44 | COc1cccc(CC(=O)N2CCN(Cc3cccc(Cl)c3)CC2)c1 | inactive

Row | Structure (SMILES) | Potency
45 | Cc1cc(=O)oc2cc3c(cc12)CCCN3 | inconclusive [inhibitor, partial curve]
46 | CCC(=Nc1ccccc1N)c1c(O)[nH]c(=O)[nH]c1=O | inconclusive [inhibitor, partial curve]
47 | Cc1ccc(-n2nnnc2SCC(=O)Nc2sc(C)c(C)c2C#N)cc1C | inconclusive [inhibitor, single point]
48 | Cc1cc(C=C2C(=O)N(C)C(=S)N(C)C2=O)c(C)n1-c1ccncc1 | inconclusive [inhibitor, single point]
49 | C#CCOc1cc(C2C3=C(COC3=O)Nc3cc4c(cc32)OCO4)ccc1OC (stereo unspecified) | inconclusive [inhibitor, single point]
50 | COc1ccc2[nH]c(C)c(CCNCc3cc(OC)c(OC)c(OC)c3)c2c1 | inconclusive [inhibitor, partial curve]
51 | S=c1[nH]nc(-c2ccccc2)n1C1C=CCCC1 (stereo unspecified) | inconclusive [inhibitor, full curve, poor fit]
52 | COc1ccc(C[C@@H]2c3cc(O)c(OC)cc3CCN2C)cc1O | inactive
53 | O=C(N/N=C1/CN2CCC1CC2)c1cc2ccccc2cc1O | inconclusive [inhibitor, single point]
54 | COc1ccc2c(C(=O)c3ccc(Cl)cc3)c(C)n(CC(=O)O)c2c1 | inactive
55 | CCC1(C)CC(C(N)=S)CCO1 (stereo unspecified) | inconclusive [inhibitor, single point]
56 | Cc1ccc(-n2c(O)c(C=Nc3ccc(S(=O)(=O)N(C)C)cc3)c(=O)[nH]c2=O)cc1 | inconclusive [inhibitor, partial curve, poor fit]
57 | CCCCCCCCn1sccc1=O | inconclusive [inhibitor, single point]
58 | CCCCCCCCCCCC[N+](C)(C)CCOc1ccccc1 | inconclusive [inhibitor, single point]
59 | CCP(=S)(CC)c1ccc(N(C)C)cc1 | inactive
60 | CC(=O)[O][Hg][c]1ccccc1 | inconclusive [inhibitor, full curve, poor fit]
61 | Cc1cc2c(C(C)C)c(O)c(O)c(C=O)c2c(O)c1-c1c(C)cc2c(C(C)C)c(O)c(O)c(C=O)c2c1O | inconclusive [inhibitor, single point]
62 | C[C@@H](N)[C@@H](O)c1ccc(O)c(O)c1 | inconclusive [inhibitor, partial curve, poor fit]
63 | Cc1cc(/C=C2\C(=O)NC(=O)N(c3ccccc3F)C2=O)c(C)n1-c1cc(C(=O)O)cc(C(=O)O)c1 | active: 5.01 µM
64 | CON(C)C(=O)Nc1ccc(Cl)cc1 | inactive
65 | N=c1c[n+](CC23CC4CC(CC(C4)C2)C3)[n-]o1 | inactive
66 | Cc1ccc(S(=O)(=O)Cc2ccc(C(=O)N3CCC4(CC3)OCCO4)o2)cc1 | inconclusive [inhibitor, single point]
